For 172 sequences, binding signal results are on record in PMC10668032.

Some of the results follow. At the low end of the ranking, values are background and their order means little.

In the test the target is SIX1 homeodomain (reference allele) (UniProt Q15475). As to the kind of experiment: universal protein binding microarray. The settings on record: Universal all-10-mer PBM (8x60K, AMADID 030236), 300 nM GST-tagged protein, Alexa Fluor 488 anti-GST; buffer, salt, pH and temperature not stated; high values mean tight binding; most listed sequences are background and not binding sites; double strand, one strand shown.
Consider CCCATGTC, for which the binding signal is -0.0913 E-score. On to AAATCAAC, for which the binding signal was -0.157 E-score.

On to AGAGTCAT, for which the binding signal was -0.172 E-score. In the case of CGACGCAA, the binding signal was -0.0949 E-score. To AACCCGTA belongs 0.143 E-score. With CAACAACC, the binding signal is -0.183 E-score. With GGAACTCA, the binding signal was -0.021 E-score. To CGGATGTC belongs 0.0747 E-score; to ATTACACC, 0.318 E-score; to AGGCCACT, -0.192 E-score.

GGGTTCAA: the binding signal is -0.0134 E-score. With TATATTAA, the binding signal was found to be 0.222 E-score. For CTAAAGGC, the binding signal is -0.301 E-score.

GGCACTGA: the binding signal worked out at 0.0152 E-score. The result for ACGCAGCG reads -0.0725 E-score. ACTTACAC: the binding signal is 0.0852 E-score.

In the case of CCAATCAA, the binding signal is -0.0789 E-score. On to ACGATCCC, for which the binding signal came out at 0.337 E-score.

Take AGAAATCT: the binding signal was -0.123 E-score. The result for ACTTCAGA reads -0.133 E-score. The result for GTGGTGAA reads -0.299 E-score; that for ATAGTGAA, 0.0164 E-score; that for GTCAGACA, -0.128 E-score. To AGAACGGG belongs -0.102 E-score. Turning to GGGAGCCA, the binding signal was -0.189 E-score.

For AACGGACG, the binding signal is -0.162 E-score. To GTGCTATA belongs 0.0789 E-score; to ACTATCCA, 0.241 E-score. ACACGGGA: the binding signal is 0.101 E-score.

As to CCTTTAAG, the binding signal was 0.033 E-score.

With CGTAATGC, the binding signal was -0.0389 E-score. On to ACGCCGCA, for which the binding signal is -0.164 E-score. The result for CCCACATA reads 0.058 E-score. For CAAAATGC, the binding signal was -0.165 E-score.

Regarding ATCACGAT, the binding signal was 0.241 E-score.

Regarding ATAGGAAC, the binding signal was -0.0728 E-score. For the sequence GCTAAAGC, the binding signal is -0.127 E-score.

In the case of CTAAAACA, the binding signal is -0.108 E-score. The result for CCGATTTA reads -0.0568 E-score; that for CGAGCTTA, -0.085 E-score.

With CGCCACGA, the binding signal is -0.11 E-score. The result for AGGATCGC reads 0.27 E-score; that for ACTATTCG, -0.0957 E-score; that for AACTTACG, -0.159 E-score.

As for AAACGCCT, the binding signal was -0.297 E-score.

CCAGTGGC: the binding signal was -0.096 E-score.

As for CGGTTAGC, the binding signal was -0.261 E-score. In the case of ATCCGTAC, the binding signal came to 0.275 E-score. The result for TATCAACA reads 0.399 E-score. As to CAGCCAGG, the binding signal was -0.0751 E-score.

As to AATGTCGT, the binding signal was -0.107 E-score. For the sequence TCAAGTAA, the binding signal came out at 0.0502 E-score. To CACTAGTC belongs -0.172 E-score; to CGCCCCTC, -0.0608 E-score; to CCACTAAC, -0.0837 E-score. Take CGGTAAAA: the binding signal is -0.0378 E-score. For CTACAAGA, the binding signal was 0.0135 E-score.

With CATCCAAC, the binding signal came to 0.0473 E-score. Take ACTTCTCT: the binding signal is -0.0682 E-score. With CTTAATCA, the binding signal came to 0.108 E-score. The result for AACCTGAT reads 0.184 E-score; that for CAGATTGA, 0.219 E-score; that for ACCGGAAC, -0.0218 E-score. The result for ATCGAGTC reads -0.0674 E-score. Take GTGCCGTA: the binding signal was 0.12 E-score. Consider CGCTTATC, for which the binding signal was -0.0243 E-score. With ATGGCAAA, the binding signal is -0.285 E-score. In the case of AAGTGACT, the binding signal was -0.204 E-score. For CCACTTTA, the binding signal was -0.101 E-score. Turning to ACAGGTGC, the binding signal was -0.0796 E-score.

For CGTGCATA, the binding signal worked out at 0.103 E-score.

Turning to CCCACGAA, the binding signal was -0.0902 E-score. The result for GTAAAACA reads -0.242 E-score; that for CATACGTA, 0.149 E-score; that for AGCTACTG, -0.0748 E-score. Take CATCACTA: the binding signal came to 0.0244 E-score. The result for AACATGCG reads -0.25 E-score.

For GTTTCGGA, the binding signal was 0.0948 E-score.

Turning to AGCGAGGA, the binding signal is 0.13 E-score. The result for AGATGCGG reads 0.111 E-score. Consider TATTATCA, for which the binding signal stood at 0.187 E-score. The result for CTCGGCAA reads -0.18 E-score; that for TAGAGACA, -0.0919 E-score. The result for TAAATGAA reads -0.0616 E-score. To CGCGTCAG belongs -0.0632 E-score; to AGTCAAGA, -0.129 E-score; to GCCGGGGA, 0.0776 E-score.

With AAGTTGGC, the binding signal is -0.2 E-score. Take CCCTGACA: the binding signal is -0.0294 E-score.

CAAACGCC: the binding signal was -0.187 E-score.

Turning to CCAAGACA, the binding signal turned out to be 0.0581 E-score.

CATCCGTA: the binding signal was 0.168 E-score. To ATCGTGCG belongs 0.155 E-score; to CGCCCTGA, 0.146 E-score.

For ATAGTCTG, the binding signal came to 0.125 E-score. To AGCGCCCT belongs -0.00309 E-score. As to CACATTGA, the binding signal was -0.0524 E-score.

As for CCCGACCA, the binding signal stood at 0.0242 E-score. Consider ACCAGAAG, for which the binding signal was -0.0043 E-score.

As for CCCTGTAG, the binding signal was determined as 0.0139 E-score. As for TAAACACA, the binding signal is -0.166 E-score.

With CGGCGAAG, the binding signal was -0.109 E-score. Consider CAGTCATC, for which the binding signal was -0.181 E-score. To ATGACCTG belongs -0.118 E-score.

Regarding ATCGGAGA, the binding signal worked out at 0.226 E-score. On to TAGCTGCA, for which the binding signal is -0.198 E-score. The result for CATTCGCC reads -0.166 E-score.

As for CGAGGAGA, the binding signal came to 0.035 E-score. Turning to CAGGGATG, the binding signal was determined as 0.0159 E-score. To AGAGATTA belongs 0.116 E-score; to AGATCCCC, 0.384 E-score. As to CGTTCCCC, the binding signal is -0.0149 E-score. To CAAGTCTG belongs -0.0857 E-score; to GCGTCTAC, 0.00749 E-score; to CCATCAAA, -0.119 E-score. To ATAATAAA belongs 0.101 E-score. With ATAATTGA, the binding signal is 0.00451 E-score. To ATCATCCA belongs 0.275 E-score; to GCATGAGC, -0.0935 E-score. With ACGGCAGG, the binding signal is -0.088 E-score. Take CACAATCA: the binding signal is -0.0591 E-score. Turning to CTGCTCGA, the binding signal is -0.024 E-score. For GATGTCCA, the binding signal was -0.121 E-score. With CCGACTTC, the binding signal is -0.167 E-score.

On to CTGTACCA, for which the binding signal was -0.0549 E-score. The result for GGCCAGCA reads -0.158 E-score; that for AATTACCA, -0.193 E-score.

Turning to CATATCAC, the binding signal turned out to be 0.446 E-score. Consider AAAAAATT, for which the binding signal was -0.261 E-score. The result for AGAAGGCT reads -0.0599 E-score; that for TCAGAGAA, -0.208 E-score. CCGGTTCG: the binding signal turned out to be 0.138 E-score. The result for CAACCGCC reads -0.189 E-score. As to CGACACTC, the binding signal worked out at 0.177 E-score.

On to AGCAATGG, for which the binding signal is -0.0841 E-score. To AGCCTGCC belongs -0.293 E-score; to ACACTTAC, -0.0206 E-score. On to AATAGCAT, for which the binding signal came out at 0.0424 E-score. With ATTTTTGA, the binding signal is 0.0643 E-score.

Consider GTAATGAC, for which the binding signal was -0.216 E-score. Regarding ACCAAGGT, the binding signal is -0.0621 E-score.

With ATTGTAAA, the binding signal is -0.107 E-score. The result for TACACTAA reads -0.0209 E-score. To ACGTCTAT belongs 0.0832 E-score; to GTCGACAA, -0.192 E-score; to CGAAGGGA, 0.127 E-score. To TAACATCA belongs -0.0855 E-score.

As for CTTCTGGC, the binding signal was -0.107 E-score. Consider GGAACCAC, for which the binding signal was -0.139 E-score.

Consider AGGGGCGG, for which the binding signal came to 0.174 E-score.

On to GTGGTTTA, for which the binding signal is -0.0852 E-score. For the sequence AAACACCC, the binding signal is 0.253 E-score. To CCGGGGAC belongs -0.0319 E-score.

As to CCCGGCAA, the binding signal was found to be 0.0881 E-score. To AATCAACT belongs -0.217 E-score; to GTCACACA, -0.0492 E-score. For TAAGGGCA, the binding signal is -0.0646 E-score. The result for AATCGAGT reads -0.0699 E-score; that for AACTGCCC, -0.0604 E-score; that for AGCACTGC, -0.15 E-score. As to AACGCGGG, the binding signal worked out at 0.0702 E-score.

For ACAACTCT, the binding signal is -0.309 E-score.

With ACTCTCGA, the binding signal is -0.089 E-score. On to CCAGAGAA, for which the binding signal was -0.0225 E-score. To CTCAGGGC belongs 0.058 E-score; to CGATACGA, 0.398 E-score; to TAACGTCA, -0.242 E-score. For the sequence ACCCGTGC, the binding signal is -0.0484 E-score. Turning to ACTGCAAG, the binding signal is -0.173 E-score. Turning to GTGCTTTA, the binding signal is -0.0927 E-score. To AGCCACGC belongs -0.231 E-score; to GCCTTCCA, -0.328 E-score.
